The other results are listed elsewhere or left out. At the low end of the ranking, values are background and their order means little.
These sequences were tested against SIX1-Q177R homeodomain (UniProt Q15475) (assay: universal protein binding microarray). Conditions: Universal all-10-mer PBM (8x60K, AMADID 030236), 300 nM GST-tagged protein, Alexa Fluor 488 anti-GST; buffer, salt, pH and temperature not stated; high values mean tight binding; most listed sequences are background and not binding sites; double strand, one strand shown.

Sequence | binding signal [E-score]
GATTTGCA | -0.00948
TAGTAAGA | -0.217
CCATGGCC | -0.143
ACCTAGCC | -0.118
TACGTCTA | -0.263
CGAATCTA | -0.207
AGCGCTTG | -0.165
ACACCCCG | 0.466
ACAGTACA | 0.203
ACCTCCGC | 0.0929
AAACAGGT | 0.00705
ATAGACGC | -0.00113
GGCGTCCA | 0.0166
AATTATAG | -0.0975
TCTTCCCA | -0.233
AGGCTTCC | -0.217
AGTTGAGC | -0.111
ATTAAGGA | 0.0168
CTGTTTCA | -0.259
CCGCCCTC | -0.173
ACCTCAAA | 0.0908
AAGCAGTC | -0.0446
GTCACGCA | -0.0101
AATCCTAA | -0.243
CCAGCTAA | -0.0622

Sequence | binding signal [E-score]
AGCGAAAA | -0.0679
ATGCGAAG | -0.186
AGGTTTTC | -0.176
TGTATTAA | 0.137
ATCTGATG | -0.171
AGTACTAG | -0.0972
CTGTTATA | 0.101
AAGGCCCG | -0.183
AAGGTACC | -0.088
AACTCTCC | 0.05
CCCCTAAC | 0.119
CGCCAATA | -0.165
ATTGGTCA | -0.108
AAGTATAA | -0.125
ATGGGTGC | 0.154
ATGTGTAG | 0.183
AAAGTAGC | -0.295
CCAGTGTA | 0.43
CCCCTCGA | 0.23
GCAATTTA | 0.0881
GTATTCAA | -0.224
CTGCGGCA | -0.216
ATTTAGAG | -0.207
CTGGAGGA | 0.0622
CTTTCTGA | -0.134

Sequence | binding signal [E-score]
GGAATGAC | -0.0375
ACGGTTAA | -0.118
GGCGCCAC | -0.264
AGATGTTA | 0.0532
CGGGAATC | -0.0647
AGGGGCCC | -0.178
CGCTCTCC | -0.0921
ACGGCTTC | -0.134
ATCATCGG | 0.103
GCCTTTTA | -0.0871
GCCTAATA | -0.0811
CATCGACG | -0.117
ATTCAGCA | -0.18
CGTCACTC | -0.0479
AACGCTAT | -0.0745
AGATTGGG | -0.106
CTGTTCCA | -0.145
CGCATCAC | -0.0719
CTTACGGC | -0.158
AGAGCACT | 0.119
CGCCATAG | 0.0554
AGGACAAG | -0.108
GCGACACA | 0.262
AGACAGAG | -0.0243
AGGGAACT | -0.0202

Sequence | binding signal [E-score]
GATTAGAC | -0.183
GCTCGCCA | -0.0614
AAAAGCCG | -0.161
GTTGAATA | -0.251
ACATAGTG | 0.19
AGACCAAC | -0.0576
AGAACTCG | -0.119
GCCGAAAA | -0.169
CGTCCGCC | 0.0484
AGTCGTCC | 0.0144
CCGGATAG | -0.0776
CGAGCCAC | 0.00089
TCATCGAA | -0.104
AAATCTCG | -0.392
GCTGCGCC | -0.163
AGTAGGTG | 0.279
CGGAGGTA | -0.0437
CCGCCGAG | 0.0251
AGGGGAAC | -0.117
CGAGGCGC | -0.0431
CTTCTTGC | -0.0263
CGGAGATA | 0.034
GGCAAGAA | -0.00789
GTCGCTTA | -0.0343
GGCCTCAA | -0.144

Sequence | binding signal [E-score]
AGGCGTGC | 0.00865
ACCTATCG | 0.0908
GTGCCATA | 0.0428
AATGCTCC | -0.305
GTACCCCA | 0.247
CGCTCCCA | -0.235
CTACAATC | 0.0458
AACCCGTC | -0.0703
AACTCGAG | 0.0251
GAGTAAGC | 0.00498
TACGCGAA | -0.0633
AGGACGCC | 0.0898
GAGTGCGA | -0.0521
ACAACAAA | -0.102
GACTCCAA | 0.139
ACTCGTTC | 0.0393
CGGTCGAA | -0.107
CATGCCCA | -0.33
ACCTGCAA | -0.128
GTGGCAGA | -0.16
CAAGGCAC | -0.192
GCTACAGA | -0.176
GCGATTAA | -0.0681
AACCTTAC | 0.0365
ACCCGGGC | 0.199

Sequence | binding signal [E-score]
CGCCGTTC | 0.0524
GTGTACAC | 0.474
TATCTAAA | 0.0642
AATTGATA | -0.177
GAACTGAA | -0.155
CACCCATG | 0.34
CGAGTTTA | -0.0171
AACAACCT | -0.194
CGTCGTTA | -0.00483
ACTGTCCC | -0.063
CAACACAC | 0.342
AAGGTAGA | 0.049
CTCACACA | 0.0797
GATGTGCC | -0.26
ATTCCAGG | -0.0187
ACCAAGCC | -0.0717
AGTGGTCG | 0.0862
GACCCGAC | 0.193
CCCACAAC | 0.0367
AGATTACC | -0.0927
AATTGTGT | 0.137
ACTTGTCG | -0.142
ATTCATCG | -0.147
GATACTCA | 0.16
GAGTCTTA | -0.0743

Sequence | binding signal [E-score]
GTACCGAC | -0.0434
CGCGCAAG | -0.0893
GGACGAAA | -0.106
AGATGGCT | -0.245
CGTTCTAC | 0.125
CACATATA | 0.0466
CTCTACCC | 0.105
CACCTTAA | 0.172
GGCAACGA | -0.0235
CGAAGTTA | -0.205
ATTTACGA | -0.0623
ATCGGAGC | -0.196
ACGTGGCC | -0.198
CGTAGGAG | -0.146
AGCTAACA | 0.0706
GCCGATCC | 0.19
ATCTGCTC | -0.0557
CGGCACAA | 0.149
GTTCTCTA | -0.0731
ACTTGTCC | -0.203
AAAGTACT | 0.00101
ACTCCAAC | 0.121
CCCCATCG | 0.107
GGCTTACA | 0.12
TAGCATCA | -0.147

Sequence | binding signal [E-score]
CCTGTCGA | -0.0833
GCAAGGAA | -0.161
ACTTGCTA | -0.0699
ACTGAGGA | -0.057
ACATGAGT | 0.0219
AACTTCAT | -0.148
TACAGGCA | -0.0814
GGCATAGA | -0.0128
GTGGACCA | -0.00241
CTTCCGAA | 0.0705
GTCGTACA | 0.26
CGACAGCC | -0.323
CACGTCCG | 0.0459
CTGTAATC | -0.192
CCTTGGGC | -0.16
ACTATCTG | -0.0702
TCCGAACA | -0.0175
AGTTGCGA | 0.01
GACTTCTA | -0.202
ACCGCGGA | 0.142
CGAAGACA | 0.0961
AACAGGTG | 0.327
ATCCTAGA | -0.0765
AGCTGGTC | -0.211
AAGAAATC | -0.281

Sequence | binding signal [E-score]
GTCGTCTA | -0.0906
GGATCATA | 0.184
CCTTCGTA | -0.191
AATTTTTA | -0.0654
TAACATGA | -0.2
ATGGGCTC | 0.0646
CATATGGA | 0.116
AAGCTGGT | -0.114
ATGATGTC | -0.0172
GGAGCGCC | -0.132
CCACATAA | 0.00032
AGTTCCCC | -0.0965
CACTTGTC | 0.161
TAGCACCA | 0.224
CAGTTTGA | -0.105
AGTGCGTC | -0.105
CTGGTGAA | -0.0336
CCTTTCAC | -0.158
GACCATCA | -0.103
AAAAAGTT | -0.073
CCAATTAG | -0.0478
AGTATCCA | 0.146
GCGGTACC | -0.0496
AGGCATAG | -0.129
CGTCTAGC | -0.082

Sequence | binding signal [E-score]
ACGCGGAA | 0.0707
CAGTGGTC | -0.148
AGAATTAG | -0.128
AAGCGCCG | -0.27
ACTGATAG | 0.0532
TAAACAAA | -0.194
CTACGAGC | 0.0139
AACTCATC | -0.227
ATGCGGGA | 0.00549
CTAGAACC | -0.0872
GCTGCCAA | -0.141
AGTTTCAG | -0.162
ACAACTAT | -0.14
AGTCTCGG | -0.00434
ACAATTAT | -0.152
AAGGGGGC | 0.0712
ACAGTATG | -0.15
ATGTGAGG | 0.0472
CTTCTCTA | -0.157
AAACGGTA | -0.116
ATGGCGTG | 0.0502
AGATTTCA | -0.0603
CAGGAGGC | -0.335
AGACGACA | 0.0584
AGTTTATG | -0.186

Sequence | binding signal [E-score]
AAGGAGCG | -0.274
GTTAGCCA | -0.0617
ACTTCCTA | -0.0948
CAGGCAGA | -0.259
CCACCGAA | 0.0837
GCGGGAGA | -0.0909
TACTCTGA | 0.0251
AGCTGGTA | -0.082
CGCTGGCA | -0.105
ACTGGACG | -0.0353
AGTTTTTA | -0.295
CCTGGCAG | -0.0508
GATTTGGA | 0.0324
CCTTACAA | -0.0516
GTATCTAA | 0.14
ATCAGTTC | -0.0929
GCTCCACA | 0.0813
CTAGGCAG | -0.163
GCATAGTA | 0.136
GCGGGACA | 0.107
CGTCATGC | -0.13
AGTGTTGA | 0.318
AACGACCT | -0.112
AACACGTG | 0.371
AGGTTGGG | -0.0791

Sequence | binding signal [E-score]
AGATATAT | -0.0664
CACTTCCG | 0.138
AATGACAA | -0.048
CCTTTAAC | 0.0243
AGAGTCTC | -0.237
AACTGGCT | -0.173
AGTCTGTG | 0.00522
AGCTCACT | -0.224
CGAACTGA | -0.166
ACTGGCTC | -0.0241
AAGGCTCG | -0.289
AGTCTTGC | -0.276
GCAGATCC | 0.00671
GTTTTATA | -0.16
CGCTGCGA | -0.176
ATGTATGC | -0.0565
CACGCAGG | 0.264
AAGACCCG | 0.0979
AATTTATA | -0.126
GACTGCCC | 0.018
CTATTTCA | -0.0201
AACCTTGC | -0.0575
AATGGAGC | 0.0378
ACCTACAA | -0.0104
CTAGCTGC | -0.217

Sequence | binding signal [E-score]
CATTTTTA | -0.259
AACGACCG | -0.155
AGGGAGAG | 0.00599
ATATGCGA | -0.072
GACCGTCC | -0.177
TGGACGAA | -0.175
GAAGCGTA | -0.0186
TCATTCAA | -0.199
TACCAGGA | -0.132
CCGAGATC | 0.0702
AGTTTATA | -0.0815
ATCTTCGG | -0.11
TGACGAAA | -0.154
GGATTTAA | -0.0303
GTCCACCA | -0.0755
CGGTCGAG | -0.17
GTGGTTAA | -0.074
TCCATTAA | 0.0112
CGCCACAC | 0.314
GACGTGAC | -0.0736
CAACGCCG | 0.164
GCGTTAGC | 0.0223
GGCTTGAC | -0.118
ATAACGAT | -0.213
GACCTCGC | -0.0734

Sequence | binding signal [E-score]
TGAACCCA | 0.0794
ATTAGTCC | -0.0448
ACGCAAAA | -0.126
CCTCTGTA | 0.105
AAGCGAGC | -0.164
CATTGCGC | -0.296
CGAGCGGA | 0.0262
AGAAACCC | 0.12
ATGACATA | -0.132
AGTCCATG | 0.0133
CCGACGAG | 0.0274
GAACAAGC | -0.263
ACTTCACC | -0.0762
CATTACGG | -0.0785
AATATAGC | -0.0964
GGTTATTA | -0.0411
AACGGCTT | -0.248
GCAGTGAA | -0.197
CAAGCCCC | 0.00103

— PMC10668032
